According to a collection of fitness landscapes (doi:10.1038/s41467-024-54723-y):
In all, about 18,000 sequences were measured (“TetR repression strength (sort-seq, GFP reporter)”: median about 0.23, highest 2% from about 0.68 on). The list shows a part of the results.

These sequences were tested against TetR (class B, Tn10) (UniProt P04483) (assay: TetR repression strength (sort-seq, GFP reporter) (relative to tetO2 = 1); higher = stronger repression). Conditions: E. coli.
Procedure, shortened: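 In LB with 50 µg/mL chloramphenicol, E. coli SIG10-MAX holding a low-copy library with eight randomized operator positions between a constitutive promoter and sfGFP, plus constitutive TetR, grew for 5 h at 37 °C. FACS then sorted 10^6 cells into 13 fluorescence bins for Illumina sequencing of each bin. Repression strength equals the top bin index plus one less the read-weighted mean bin, normalized to the unaltered operator. Values from three independent transformations were averaged when reads were ≥30 in every replicate and the CV was ≤0.5.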

Sequence of UniProt P04483 (P04483 whole entry): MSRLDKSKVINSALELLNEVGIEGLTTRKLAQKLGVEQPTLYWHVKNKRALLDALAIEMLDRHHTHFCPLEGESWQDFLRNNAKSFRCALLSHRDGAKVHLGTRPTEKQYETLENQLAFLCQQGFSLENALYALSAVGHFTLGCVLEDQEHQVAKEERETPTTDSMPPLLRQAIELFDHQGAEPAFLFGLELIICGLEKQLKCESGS

Sequence | TetR repression strength
TCCCGGTCAGTGATCGAGA | 0.684
TCCCACGGAGTAGCAGAGA | 0.0379
TCCCGGTTAGTCTTGGAGA | 0.317
TCCCGATAAGTTGATGAGA | 0.19
TCCCGACAAGTGGCCGAGA | 0.258
TCCCCACAAGTACGTGAGA | 0.199
TCCCGTGGAGTCTCGGAGA | 0.338
TCCCCTACAGTGACTGAGA | 0.305
TCCCTAACAGTTTTCGAGA | 0.335
TCCCAAAGAGTATATGAGA | 0.114
TCCCGTTTAGTGCGAGAGA | 0.217
TCCCTGTGAGTGTGGGAGA | 0.238
TCCCATTCAGTTTGCGAGA | 0.243
TCCCACGGAGTCGCGGAGA | 0.172
TCCCCAGTAGTTGGCGAGA | 0.0887
TCCCTAACAGTGGAAGAGA | 0.299
TCCCAAAAAGTGAGCGAGA | 0.128
TCCCGGGAAGTTCGGGAGA | 0.249
TCCCTTTTAGTAAGAGAGA | 0.277
TCCCGCCCAGTTGGCGAGA | 0.179
TCCCTTGAAGTGGCAGAGA | 0.107
TCCCGAGCAGTGGCTGAGA | 0.347
TCCCTCTGAGTCACAGAGA | 0.529
TCCCTAGCAGTGCCAGAGA | 0.637
TCCCGTGTAGTAGTAGAGA | 0.269
TCCCTACGAGTGTCAGAGA | 0.194

Sequence | TetR repression strength
TCCCCCTGAGTCTAAGAGA | 0.278
TCCCCTTTAGTGGGAGAGA | 0.273
TCCCGTGGAGTAGCGGAGA | 0.16
TCCCGGGCAGTGATTGAGA | 0.341
TCCCGTGTAGTGGCGGAGA | 0.168
TCCCGCGAAGTGCGAGAGA | 0.142
TCCCGTACAGTATCTGAGA | 0.222
TCCCTGTCAGTGTTAGAGA | 0.51
TCCCGCGGAGTGATGGAGA | 0.164
TCCCGCAAAGTAAACGAGA | 0.00864
TCCCGGCGAGTGCCGGAGA | 0.193
TCCCGCTCAGTGGGCGAGA | 0.246
TCCCTCTTAGTCGGCGAGA | 0.197
TCCCAGGGAGTTTTGGAGA | 0.197
TCCCTGCCAGTTTACGAGA | 0.197
TCCCTGTAAGTAGAAGAGA | 0.214
TCCCGTCTAGTTTCGGAGA | 0.153
TCCCATAAAGTAGCGGAGA | 0.154
TCCCCTTTAGTGTGTGAGA | 0.238
TCCCCATCAGTGTTGGAGA | 0.0933
TCCCAGCAAGTGGGAGAGA | 0.221
TCCCGTCAAGTAATAGAGA | 0.331
TCCCTATCAGTCAAAGAGA | 0.636
TCCCGAGTAGTCTCTGAGA | 0.246
TCCCGTCTAGTGTGCGAGA | 0.259
TCCCATGTAGTGAAGGAGA | 0

Sequence | TetR repression strength
TCCCCAAAAGTGGGGGAGA | 0.196
TCCCAGACAGTGCTCGAGA | 0.855
TCCCCTTGAGTAAGGGAGA | 0.263
TCCCGTTTAGTATAAGAGA | 0.104
TCCCGTTCAGTCCGGGAGA | 0.184
TCCCATCCAGTCCCGGAGA | 0.027
TCCCAATTAGTGGCTGAGA | 0.152
TCCCGTGTAGTTTACGAGA | 0.0829
TCCCAGGAAGTGCGGGAGA | 0.309
TCCCGTACAGTGTGTGAGA | 0.286
TCCCTATAAGTGTCTGAGA | 0.575
TCCCGAAAAGTTGTAGAGA | 0.261
TCCCTGCGAGTTTTGGAGA | 0.457
TCCCGGTTAGTAACTGAGA | 0.207
TCCCAATAAGTGATTGAGA | 0.408
TCCCTTCGAGTCTGGGAGA | 0.384
TCCCTGCAAGTCCCGGAGA | 0.356
TCCCCCATAGTCGGCGAGA | 0.134
TCCCGGGAAGTCGGTGAGA | 0.114
TCCCATTCAGTTCTTGAGA | 0.231
TCCCCAACAGTCGCTGAGA | 0.499
TCCCCACCAGTTGTGGAGA | 0.196
TCCCACATAGTGGTGGAGA | 0.381
TCCCGCATAGTGGCGGAGA | 0.19
TCCCAACGAGTGGGAGAGA | 0.217
TCCCATGCAGTAGACGAGA | 0.205

Sequence | TetR repression strength
TCCCGGGAAGTGCATGAGA | 0.167
TCCCTGCCAGTTGTAGAGA | 0.319
TCCCACGCAGTGGCTGAGA | 0.106
TCCCCTCGAGTGGTAGAGA | 0.191
TCCCACCTAGTGATAGAGA | 0.487
TCCCGGGGAGTCATTGAGA | 0.395
TCCCAGCGAGTGCAAGAGA | 0.364
TCCCTCCCAGTGGAAGAGA | 0.491
TCCCCACGAGTATAGGAGA | 0.0143
TCCCGAAGAGTTCACGAGA | 0.33
TCCCTCCCAGTTCTTGAGA | 0.466
TCCCCAAGAGTTGGGGAGA | 0.0324
TCCCGATCAGTGCAGGAGA | 0.299
TCCCGGACAGTTAATGAGA | 0.158
TCCCACGAAGTGCCAGAGA | 0.186
TCCCACTAAGTGCGCGAGA | 0.204
TCCCACAGAGTCGGTGAGA | 0.165
TCCCTTAGAGTCCAGGAGA | 0.215
TCCCGGCTAGTAGTAGAGA | 0.293
TCCCGGGAAGTATGAGAGA | 0.278
TCCCACGCAGTGCTGGAGA | 0.175
TCCCAATTAGTGGTCGAGA | 0.32
TCCCGGGTAGTCGTAGAGA | 0.501
TCCCGCACAGTGGCCGAGA | 0.526
